To fix the notation:
B1: human INTS11, subunit of the human Integrator cleavage module (enzyme)
chain: not shown
notes: Integrator complex subunit 11 (INTS11), human; source: insect cells, purified as human ICM sample
B2: human INTS11 K462E (in the K462E mutant human ICM) (enzyme)
chain: not shown
notes: Integrator complex subunit 11 (INTS11), human, with K462E; also called K462E mutant of human ICM; source: insect cells, purified as human ICM sample
B3: human INTS9 K510E/R511E (in the K510E/R511E mutant human ICM) (natural protein)
chain: not shown
notes: Integrator complex subunit 9 (INTS9), human, with K510E and R511E; also called K510E/R511E double mutation in IntS9; source: insect cells, purified as human ICM sample

Assay in all cases: SEC; gel filtration of wild-type, K462E and K510E/R511E mutant human ICM purified from insect cell expression; SDS gels of the mutants
What all share (details): both partners purified
On the technique in general: SEC sorts molecules by how far they enter the pores of the column.

Assay [1] has as its target T1, human INTS4, subunit of the human Integrator cleavage module (human, UniProt Q96HW7).
T1 construct: Integrator complex subunit 4 (INTS4), human; source: insect cells, purified as human ICM sample

Assay [2] has as its target T2, human INTS9, subunit of the human Integrator cleavage module (human, UniProt Q9NV88).
T2 construct: Integrator complex subunit 9 (INTS9), human; source: insect cells, purified as human ICM sample

Assay [3] concerns the target B3.

T1 sequence (Q96HW7 whole entry): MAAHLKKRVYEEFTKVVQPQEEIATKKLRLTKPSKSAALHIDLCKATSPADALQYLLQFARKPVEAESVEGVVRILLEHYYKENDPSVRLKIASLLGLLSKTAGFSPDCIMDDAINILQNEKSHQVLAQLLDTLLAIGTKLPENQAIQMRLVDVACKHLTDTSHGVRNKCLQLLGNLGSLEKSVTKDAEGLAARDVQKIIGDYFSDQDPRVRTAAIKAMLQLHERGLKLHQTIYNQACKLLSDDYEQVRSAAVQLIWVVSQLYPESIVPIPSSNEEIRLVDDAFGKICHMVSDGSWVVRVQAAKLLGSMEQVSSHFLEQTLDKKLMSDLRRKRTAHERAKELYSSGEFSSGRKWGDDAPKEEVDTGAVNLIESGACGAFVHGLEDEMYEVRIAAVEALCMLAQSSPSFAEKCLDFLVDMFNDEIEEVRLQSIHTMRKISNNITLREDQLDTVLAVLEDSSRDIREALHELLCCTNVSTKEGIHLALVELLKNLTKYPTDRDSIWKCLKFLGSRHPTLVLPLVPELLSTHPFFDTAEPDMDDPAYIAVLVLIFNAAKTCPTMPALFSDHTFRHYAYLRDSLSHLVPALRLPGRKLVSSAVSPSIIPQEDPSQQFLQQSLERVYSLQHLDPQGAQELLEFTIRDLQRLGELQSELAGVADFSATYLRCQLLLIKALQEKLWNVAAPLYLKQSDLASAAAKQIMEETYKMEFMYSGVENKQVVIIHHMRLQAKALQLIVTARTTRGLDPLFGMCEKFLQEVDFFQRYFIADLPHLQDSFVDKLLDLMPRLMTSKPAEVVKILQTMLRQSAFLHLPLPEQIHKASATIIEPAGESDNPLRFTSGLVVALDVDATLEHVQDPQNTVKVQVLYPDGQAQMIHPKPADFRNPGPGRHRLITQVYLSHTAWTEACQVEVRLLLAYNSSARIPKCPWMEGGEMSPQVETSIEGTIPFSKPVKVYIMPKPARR

For the molecule B1, the binding result in assay [1], in assay [2] and in assay [3] was “binds” in each case.
Turning to B2, the binding result in assay [1] and in assay [2] was “binds” each time.
With B3, the binding result in assay [1] is on record as “binds”.

The record behind these values is paper PMC9525679, “Inositol hexakisphosphate is required for Integrator function” (Nature Communications, 2022).
